Results published in publication PMC10741959.
No constants are given. Whether binding was seen depends on the method and setting. In cells and extracts the contact can be indirect. Some entries that bind do so weakly or less than the wild type. For some assays here: Tags and fused reporters may be left off the sequences shown.

Amino acid sequences for entries named in this document (tags omitted). A change or cut given only in a name is not applied to a line headed by its entry. Residues count along the entry.
UniProt P37198: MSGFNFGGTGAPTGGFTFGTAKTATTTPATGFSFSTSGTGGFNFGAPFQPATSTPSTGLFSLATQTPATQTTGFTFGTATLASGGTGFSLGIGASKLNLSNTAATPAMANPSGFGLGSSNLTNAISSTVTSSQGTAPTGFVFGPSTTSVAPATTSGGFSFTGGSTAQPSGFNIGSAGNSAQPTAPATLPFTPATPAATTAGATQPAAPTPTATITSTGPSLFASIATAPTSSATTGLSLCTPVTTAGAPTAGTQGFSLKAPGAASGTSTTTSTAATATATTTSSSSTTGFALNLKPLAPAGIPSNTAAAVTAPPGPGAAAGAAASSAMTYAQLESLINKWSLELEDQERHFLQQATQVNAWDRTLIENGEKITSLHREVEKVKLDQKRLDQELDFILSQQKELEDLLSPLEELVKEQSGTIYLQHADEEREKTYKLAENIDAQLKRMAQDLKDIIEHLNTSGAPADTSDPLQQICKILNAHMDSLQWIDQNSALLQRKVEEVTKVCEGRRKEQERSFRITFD
UniProt P52948, residues 1-880: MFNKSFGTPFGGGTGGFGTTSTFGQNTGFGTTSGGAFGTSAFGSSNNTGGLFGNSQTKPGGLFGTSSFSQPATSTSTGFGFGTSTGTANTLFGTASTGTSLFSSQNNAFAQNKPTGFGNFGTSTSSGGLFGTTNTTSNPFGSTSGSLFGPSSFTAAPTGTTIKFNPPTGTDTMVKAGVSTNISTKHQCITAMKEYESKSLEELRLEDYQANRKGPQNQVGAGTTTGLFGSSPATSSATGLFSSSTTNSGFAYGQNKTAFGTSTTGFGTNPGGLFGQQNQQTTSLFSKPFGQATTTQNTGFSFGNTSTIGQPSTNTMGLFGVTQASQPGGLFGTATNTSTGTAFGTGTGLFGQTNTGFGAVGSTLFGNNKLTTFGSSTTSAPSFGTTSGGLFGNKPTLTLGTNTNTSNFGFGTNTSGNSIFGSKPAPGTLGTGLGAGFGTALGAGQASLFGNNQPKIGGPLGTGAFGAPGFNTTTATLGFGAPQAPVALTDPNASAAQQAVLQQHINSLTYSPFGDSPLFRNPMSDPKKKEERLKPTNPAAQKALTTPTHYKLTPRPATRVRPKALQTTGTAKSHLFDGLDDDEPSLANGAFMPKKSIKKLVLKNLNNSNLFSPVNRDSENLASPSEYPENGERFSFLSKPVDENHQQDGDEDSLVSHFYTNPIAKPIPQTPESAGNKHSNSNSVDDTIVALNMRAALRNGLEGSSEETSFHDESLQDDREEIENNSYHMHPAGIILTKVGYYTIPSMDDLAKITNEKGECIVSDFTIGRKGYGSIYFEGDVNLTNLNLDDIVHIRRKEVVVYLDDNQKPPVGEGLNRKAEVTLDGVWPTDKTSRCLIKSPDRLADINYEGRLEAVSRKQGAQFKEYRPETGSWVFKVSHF
UniProt P49790: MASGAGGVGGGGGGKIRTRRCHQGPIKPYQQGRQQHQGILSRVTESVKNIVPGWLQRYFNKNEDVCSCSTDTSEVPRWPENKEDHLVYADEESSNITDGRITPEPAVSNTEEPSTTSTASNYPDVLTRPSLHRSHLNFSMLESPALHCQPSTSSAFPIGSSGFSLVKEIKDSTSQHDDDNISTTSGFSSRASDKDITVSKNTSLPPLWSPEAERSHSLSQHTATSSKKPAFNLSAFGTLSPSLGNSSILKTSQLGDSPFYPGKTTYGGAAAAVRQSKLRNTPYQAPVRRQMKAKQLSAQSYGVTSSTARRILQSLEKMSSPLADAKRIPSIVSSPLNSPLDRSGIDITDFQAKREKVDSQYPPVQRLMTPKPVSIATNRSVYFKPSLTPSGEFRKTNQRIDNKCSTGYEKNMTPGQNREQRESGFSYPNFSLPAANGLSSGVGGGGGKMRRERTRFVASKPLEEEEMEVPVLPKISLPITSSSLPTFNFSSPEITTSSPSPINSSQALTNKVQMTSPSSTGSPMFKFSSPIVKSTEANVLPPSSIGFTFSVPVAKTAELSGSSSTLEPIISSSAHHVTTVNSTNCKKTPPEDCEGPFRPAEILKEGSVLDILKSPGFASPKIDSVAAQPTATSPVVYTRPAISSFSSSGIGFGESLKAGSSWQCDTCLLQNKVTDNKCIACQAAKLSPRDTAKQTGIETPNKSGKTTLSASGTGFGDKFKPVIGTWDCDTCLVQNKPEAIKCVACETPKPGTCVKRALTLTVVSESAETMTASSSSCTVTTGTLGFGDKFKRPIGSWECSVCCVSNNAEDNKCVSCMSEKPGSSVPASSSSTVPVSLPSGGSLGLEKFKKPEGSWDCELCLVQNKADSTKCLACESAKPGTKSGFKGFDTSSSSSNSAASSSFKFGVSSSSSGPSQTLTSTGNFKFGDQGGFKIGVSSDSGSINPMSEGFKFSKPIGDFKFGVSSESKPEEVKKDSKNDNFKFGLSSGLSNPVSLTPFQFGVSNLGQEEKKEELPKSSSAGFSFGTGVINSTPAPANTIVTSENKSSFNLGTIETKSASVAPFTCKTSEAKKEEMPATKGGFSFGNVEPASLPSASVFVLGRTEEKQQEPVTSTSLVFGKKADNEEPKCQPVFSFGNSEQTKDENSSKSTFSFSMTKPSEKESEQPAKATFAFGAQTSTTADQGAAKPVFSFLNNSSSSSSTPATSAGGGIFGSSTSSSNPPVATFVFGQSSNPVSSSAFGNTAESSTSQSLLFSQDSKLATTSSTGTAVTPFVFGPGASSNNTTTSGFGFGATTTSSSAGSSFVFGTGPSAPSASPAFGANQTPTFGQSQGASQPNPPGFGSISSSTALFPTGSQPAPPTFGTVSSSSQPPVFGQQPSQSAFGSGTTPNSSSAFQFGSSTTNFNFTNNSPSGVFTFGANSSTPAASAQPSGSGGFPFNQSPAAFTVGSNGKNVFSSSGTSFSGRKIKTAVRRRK
UniProt P49792: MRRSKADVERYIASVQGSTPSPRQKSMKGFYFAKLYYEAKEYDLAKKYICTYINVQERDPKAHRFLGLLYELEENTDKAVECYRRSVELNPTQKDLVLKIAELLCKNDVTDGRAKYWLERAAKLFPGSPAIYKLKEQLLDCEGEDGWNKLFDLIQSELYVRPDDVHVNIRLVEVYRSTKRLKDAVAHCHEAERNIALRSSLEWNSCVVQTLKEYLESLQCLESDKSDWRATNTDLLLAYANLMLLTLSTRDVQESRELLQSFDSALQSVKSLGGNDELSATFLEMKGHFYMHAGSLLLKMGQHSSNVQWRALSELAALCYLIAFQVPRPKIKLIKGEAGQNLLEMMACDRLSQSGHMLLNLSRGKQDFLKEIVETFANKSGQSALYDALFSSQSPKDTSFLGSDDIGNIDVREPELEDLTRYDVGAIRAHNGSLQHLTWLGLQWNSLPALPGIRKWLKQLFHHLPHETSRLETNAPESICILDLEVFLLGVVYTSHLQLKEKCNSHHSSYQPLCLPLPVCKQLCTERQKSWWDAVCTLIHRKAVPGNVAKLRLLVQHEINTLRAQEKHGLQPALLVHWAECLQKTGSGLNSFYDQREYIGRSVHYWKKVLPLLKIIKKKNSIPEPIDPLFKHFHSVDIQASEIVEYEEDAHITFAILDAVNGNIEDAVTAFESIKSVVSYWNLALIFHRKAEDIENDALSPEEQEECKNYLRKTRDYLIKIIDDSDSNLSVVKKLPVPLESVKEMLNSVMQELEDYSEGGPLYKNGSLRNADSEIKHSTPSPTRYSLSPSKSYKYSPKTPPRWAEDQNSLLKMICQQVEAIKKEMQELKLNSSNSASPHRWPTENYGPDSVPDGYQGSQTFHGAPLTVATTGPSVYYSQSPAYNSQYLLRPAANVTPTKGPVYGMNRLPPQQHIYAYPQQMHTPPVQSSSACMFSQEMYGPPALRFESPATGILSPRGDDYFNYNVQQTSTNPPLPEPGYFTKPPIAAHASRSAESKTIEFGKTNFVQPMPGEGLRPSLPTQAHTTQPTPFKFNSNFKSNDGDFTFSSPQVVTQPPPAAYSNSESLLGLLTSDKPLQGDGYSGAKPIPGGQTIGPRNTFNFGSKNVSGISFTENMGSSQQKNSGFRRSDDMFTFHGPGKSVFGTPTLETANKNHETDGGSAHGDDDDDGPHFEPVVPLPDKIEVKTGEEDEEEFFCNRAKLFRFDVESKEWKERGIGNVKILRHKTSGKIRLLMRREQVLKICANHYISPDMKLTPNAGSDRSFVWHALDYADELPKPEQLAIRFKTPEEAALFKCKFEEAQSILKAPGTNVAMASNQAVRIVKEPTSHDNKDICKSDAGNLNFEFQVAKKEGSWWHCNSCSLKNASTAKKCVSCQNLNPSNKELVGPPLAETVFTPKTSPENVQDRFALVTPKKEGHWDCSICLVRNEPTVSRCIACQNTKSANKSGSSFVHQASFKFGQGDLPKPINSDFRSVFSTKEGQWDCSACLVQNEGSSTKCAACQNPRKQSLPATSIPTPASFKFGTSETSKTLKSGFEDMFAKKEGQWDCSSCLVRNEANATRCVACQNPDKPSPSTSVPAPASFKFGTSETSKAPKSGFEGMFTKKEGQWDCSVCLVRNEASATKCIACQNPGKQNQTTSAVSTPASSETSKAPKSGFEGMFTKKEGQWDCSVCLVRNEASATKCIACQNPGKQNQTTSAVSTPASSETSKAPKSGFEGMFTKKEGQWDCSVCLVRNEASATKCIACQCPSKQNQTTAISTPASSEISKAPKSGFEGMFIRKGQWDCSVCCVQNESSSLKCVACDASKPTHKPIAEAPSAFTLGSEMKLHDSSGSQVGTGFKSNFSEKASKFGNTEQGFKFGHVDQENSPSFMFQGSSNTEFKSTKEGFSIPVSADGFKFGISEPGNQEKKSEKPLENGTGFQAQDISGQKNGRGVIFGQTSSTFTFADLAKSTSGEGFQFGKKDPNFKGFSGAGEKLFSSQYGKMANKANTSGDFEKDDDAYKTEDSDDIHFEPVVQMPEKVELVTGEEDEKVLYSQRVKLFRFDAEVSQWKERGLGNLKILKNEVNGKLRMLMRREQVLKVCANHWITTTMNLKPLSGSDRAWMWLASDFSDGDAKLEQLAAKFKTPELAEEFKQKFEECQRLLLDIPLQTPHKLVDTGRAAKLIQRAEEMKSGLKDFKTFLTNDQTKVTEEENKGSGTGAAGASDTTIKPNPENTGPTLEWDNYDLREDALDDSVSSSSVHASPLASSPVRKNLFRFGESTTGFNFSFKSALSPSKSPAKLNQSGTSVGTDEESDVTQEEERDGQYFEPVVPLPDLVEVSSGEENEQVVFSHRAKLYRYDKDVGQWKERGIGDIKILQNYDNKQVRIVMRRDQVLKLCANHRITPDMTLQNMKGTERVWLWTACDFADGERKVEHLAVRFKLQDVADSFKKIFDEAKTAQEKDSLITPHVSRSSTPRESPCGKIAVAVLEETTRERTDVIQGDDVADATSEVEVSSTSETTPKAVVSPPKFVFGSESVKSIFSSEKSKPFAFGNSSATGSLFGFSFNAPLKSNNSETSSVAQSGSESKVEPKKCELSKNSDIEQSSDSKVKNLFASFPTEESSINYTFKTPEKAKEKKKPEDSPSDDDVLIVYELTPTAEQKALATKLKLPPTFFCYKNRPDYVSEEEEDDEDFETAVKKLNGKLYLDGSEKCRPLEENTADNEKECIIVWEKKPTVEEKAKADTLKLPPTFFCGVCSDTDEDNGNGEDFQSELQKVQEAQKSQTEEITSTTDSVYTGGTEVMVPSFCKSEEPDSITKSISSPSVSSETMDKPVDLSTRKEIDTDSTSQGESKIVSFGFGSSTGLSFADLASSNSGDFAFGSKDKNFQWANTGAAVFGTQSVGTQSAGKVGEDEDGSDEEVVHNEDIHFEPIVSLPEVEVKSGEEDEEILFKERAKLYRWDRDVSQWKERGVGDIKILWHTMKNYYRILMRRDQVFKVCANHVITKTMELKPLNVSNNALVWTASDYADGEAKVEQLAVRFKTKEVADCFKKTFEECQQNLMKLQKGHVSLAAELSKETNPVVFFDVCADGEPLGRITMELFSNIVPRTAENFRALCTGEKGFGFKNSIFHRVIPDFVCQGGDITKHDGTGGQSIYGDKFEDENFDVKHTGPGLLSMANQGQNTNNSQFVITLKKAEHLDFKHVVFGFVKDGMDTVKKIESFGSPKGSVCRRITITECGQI

Experiments:
[1] = target: T1, GFP fused to the Import Targeting Domain (ITD, 683-808) of RTEL1 (human) (UniProt Q9NZ71); assay: co-IP; GFP-tagged ITD (683-808) of RTEL1 expressed in cells, endogenous nucleoporins blotted (Figure S5C,D)
T1 sequence: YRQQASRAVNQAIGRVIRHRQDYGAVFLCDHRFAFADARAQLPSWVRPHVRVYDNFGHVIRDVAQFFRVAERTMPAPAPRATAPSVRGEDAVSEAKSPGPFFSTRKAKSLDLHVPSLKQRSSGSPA

[2] = target: T2, C-terminal RTEL1 carrying the ITD (683-1300) (human) (UniProt Q9NZ71); assay: co-IP; N-terminal fragment of NUP153 (1-434) together with C-terminal RTEL1 (683-1300) (Figure S5B)
T2 sequence: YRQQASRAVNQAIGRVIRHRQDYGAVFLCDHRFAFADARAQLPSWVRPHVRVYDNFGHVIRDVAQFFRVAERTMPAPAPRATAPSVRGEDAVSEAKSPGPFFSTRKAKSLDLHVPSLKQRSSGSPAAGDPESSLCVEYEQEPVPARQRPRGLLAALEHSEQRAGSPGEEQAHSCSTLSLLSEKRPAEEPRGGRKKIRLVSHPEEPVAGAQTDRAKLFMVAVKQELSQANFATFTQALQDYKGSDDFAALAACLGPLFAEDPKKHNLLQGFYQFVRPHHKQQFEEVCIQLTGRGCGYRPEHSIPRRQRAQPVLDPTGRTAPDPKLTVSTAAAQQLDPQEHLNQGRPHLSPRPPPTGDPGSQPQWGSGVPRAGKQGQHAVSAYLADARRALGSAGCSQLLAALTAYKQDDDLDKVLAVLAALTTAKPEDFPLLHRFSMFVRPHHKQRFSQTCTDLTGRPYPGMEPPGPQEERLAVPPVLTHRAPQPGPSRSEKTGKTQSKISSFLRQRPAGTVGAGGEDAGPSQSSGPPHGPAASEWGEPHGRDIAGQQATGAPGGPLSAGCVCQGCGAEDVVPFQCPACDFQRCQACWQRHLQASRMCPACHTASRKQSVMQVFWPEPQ

binding [1] | binding [2] | Substance
binds | – | NUP62, endogenous (from UniProt P37198 1-522)
no binding | – | NUP98, endogenous (from UniProt P52948 1-880)
– | binds | GFP-tagged N-terminal fragment of NUP153 (aa 1-434) (from UniProt P49790 1-434) (domain or fragment)

The next lines start with the substance.

Substance | binding [1] | binding [2]
NUP153, endogenous (from UniProt P49790 1-1475) | binds | –
RANBP2, endogenous (from UniProt P49792 1-3224) | no binding | –
